From US20230391888A1 (Sanofi, published 2023) come the findings set out here.

Broadly, the Kd is the constant that tells how readily two partners part at equilibrium. A high value points to a looser complex. In general, koff refers to the rate constant with which the complex falls apart. Low readings indicate slow dissociation, high ones fast dissociation. Broadly, the kon is the second-order rate constant of association. Read a low kon as slower complex formation.

For test [1], the target named is T1, human HER2 (1129-ER, R&D Systems) (human, UniProt P04626 fragment).
T1 construct: also called Receptor tyrosine-protein kinase erbB-2
Briefly: SPR (BIAcore 3000), binding test with HER2 captured by the anti-human Fc antibody, constructs injected at 100 nM; response as % of theoretical Rmax. For orientation: In SPR one partner is held on a chip, and binding of the other changes the refractive index at the surface.

The target in test [2] is T2, Human IL4 (IL004, Millipore) (human, UniProt P05112 25-153).
T2 sequence (looked up): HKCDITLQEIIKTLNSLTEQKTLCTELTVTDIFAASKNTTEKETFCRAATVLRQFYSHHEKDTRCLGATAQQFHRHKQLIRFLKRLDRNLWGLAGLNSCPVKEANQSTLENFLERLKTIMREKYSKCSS
As to the kind of experiment: SPR, BIAcore 3000; antibody captured by anti-human Fc, antigen as analyte; column head says nM, but kd/ka gives M. On the procedure: (§1) Surface plasmon resonance (SPR) was used to assess the binding of antigens to antibody. Binding of antigens to the antibody constructs was measured using surface plasmon resonance (SPR) with a BIAcore 3000 instrument (GE Healthcare) with HBS-EP buffer (GE Healthcare). Human IL4 (IL004, Millipore) and human IL13 (IL012, Millipore), human HER2 (1129-ER, R&D Systems), human TNFa (H8916, SIGMA Aldrich), human CTLA4 (CT4-H5229, ACRO Biosystems), human PD-1 (8986-PD, R&D Systems), and human IL6Ra (227-SR/CF, R&D Systems) were used as antigens. The anti-human Fc capture antibody (human antibody capture kit, GE Life Sciences) was immobilized via primary amine groups (11000 RU) on a research grade CM5 chip (GE Life Sciences) using standard procedures. […] Binding tests with HER2 was performed by capture of the antigen with the anti-human Fc antibody. The tested antibody constructs were used as analytes and injected at 100 nM concentration for 240 sec with a dissociation time of 300 sec at a flow rate of 30 μL/min. Binding kinetics measurements were done using the captured antibodies with injects of two-fold serial dilutions of the analytes of 3 nM to 100 nM. […] Chip surfaces were regenerated with 2 min injects of the regeneration buffer provided with the capture kit. Sensorgrams were double referenced with a blank chip surface and HBS-EP buffer blanks. […]

The target of test [3] is T2, Human IL4 (IL004, Millipore). Briefly: SPR, BIAcore 3000; antibody captured by anti-human Fc, antigen as analyte. The protocol:
as §1

B1: Anti-IL13-(G4S)2-Trestuzumab_Var1 (antibody)
heavy chain: EVQLKESGPGLVAPGGSLSITCTVSGFSLTDSSINWVRQPPGKGLEWLGMIWGDGRIDYADALKSRLSISKDSSKSQVFLEMTSLRTDDTATYYCARDGYFPYAMDFWGQGTSVTVSSGGGGSGGGGSEVQLVESGGGLVQPGGSLRLSCAASGFNIKDTAIHWVRQAPGKCLEWVAEIYPTNGYTEYADSVKGRFTISADTSKNTAYLQMNSLRAEDTAVYYCSRWGGDGFAAMDYWGQGTLVTVSS[gap - human IgG1 Fc]
light chain: DIVLTQSPASLAVSLGQRATISCRASESVDSYGQSYMHWYQQKAGQPPKLLIYLASNLESGVPARFSGSGSRTDFTLTIDPVQAEDAATYYCQQNAEDSRTFGGGTKLEIKGGGGSGGGGS[gap - about 100 residues]
notes: also called anti-IL13 pseudo-IgG with trastuzumab knockout variant 1
Consider B1, for which the binding result in test [1] is on record as “no binding (tested: 100 nM)”.

B2: IL4 pseudo-IgG (ID 21, anti-IL4-(G4S)2-dsTrasKO2-Fc-huIgG1) (antibody)
light: DIQMTQSPASLSVSVGDTITLTCHASQNIDVWLSWFQQKPGNIPKLLIYKASNLHTGVPSRFSGSGSGTGFTLTISSLQPEDIATYYCQQAHSYPFTFGGGTKLEIKGGGGSGGGGS[gap - about 100 residues]
heavy: QVQLQQSGPELVKPGASVKISCKASGYSFTSYWIHWIKQRPGQGLEWIGMIDPSDGETRLNQRFQGRATLTVDESTSTAYMQLRSPTSEDSAVYYCTRLKEYGNYDSFYFDVWGAGTLVTVSSGGGGSGGGGSEVQLVESGGGLVQPGGSLRLSCAASGFNIKDTYIHWVRQAPGKCLEWVAEIYPTNGYTEYADSVKGRFTISADTSKNTAYLQMNSLRAEDTAVYYCSRWGGDGFYAMDYWGQGTLVTVSS[gap - human IgG1 Fc]
notes: also called IL4 mAb Pseudo-IgG
For B2, binding in test [2] was put at a Kd of 1.94 pM. Moreover, in test [3], the koff was 0.000144 s⁻¹ and the kon amounted to 7.43e+07 M⁻¹ s⁻¹.
